The values that follow come from article PMC10726135.

The other results are listed elsewhere or left out. At the low end of the ranking the order means little. Measured with an extract: partners may take part in the binding.

The target in this experiment is T1, HNF4alpha8 (COS-7 nuclear extract) (UniProt P41235-5).
T1 sequence: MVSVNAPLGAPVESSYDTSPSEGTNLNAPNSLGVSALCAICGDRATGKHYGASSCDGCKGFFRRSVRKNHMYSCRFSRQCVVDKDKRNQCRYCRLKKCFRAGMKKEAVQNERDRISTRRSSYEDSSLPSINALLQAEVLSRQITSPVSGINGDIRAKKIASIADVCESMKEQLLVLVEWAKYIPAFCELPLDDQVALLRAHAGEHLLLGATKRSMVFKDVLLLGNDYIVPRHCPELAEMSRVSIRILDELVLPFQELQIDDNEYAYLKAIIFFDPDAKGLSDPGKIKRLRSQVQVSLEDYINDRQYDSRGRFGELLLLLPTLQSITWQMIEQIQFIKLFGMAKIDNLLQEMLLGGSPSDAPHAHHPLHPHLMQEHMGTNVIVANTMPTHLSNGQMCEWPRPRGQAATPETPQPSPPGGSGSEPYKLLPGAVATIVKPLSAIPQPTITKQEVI
As to the kind of experiment: protein-binding microarray. The conditions noted are these: COS-7 nuclear extract on double-stranded Agilent 4x180k PBM; binding buffer, salt, pH and temperature not given; high values mean tight binding; double strand, one strand shown; sequences stand for … in …GCCTAGGGAGATTAGAGTATCGGTCGA
AAGTTAAAACAGCAGAGCACGATGAATAGG: the binding signal (log2 normalized intensity) was -1.24.

On to GTGATCAATCAGCAGCAAAGTCCTGGAAGA, for which the binding signal (log2 normalized intensity) turned out to be 0.053.

Turning to ATATTTGCATAATGGAGCAAAGGTCATCCT, the binding signal (log2 normalized intensity) stood at 7.22.

In the case of AAATCTTCAACTGGAGGATAAAGTTCAAGT, the binding signal (log2 normalized intensity) worked out at 3.09.

TGCCCTTCTTGTTAACCTCCTATGATCTTT: the binding signal (log2 normalized intensity) worked out at 3.08.

For the sequence GGCCTTTCCTGACCCCTCCTCCCCCCGCCG, the binding signal (log2 normalized intensity) is 6.08.

With TACATTGAACTTTGAACACCTCTTCTTTCT, the binding signal (log2 normalized intensity) was determined as 5.51.

In the case of CTTGGACTGAAGACTGGAACTGGGCTGACT, the binding signal (log2 normalized intensity) is -1.21.

On to CTCGGCATCATGCCCTTTGGCCCCCAGAGC, for which the binding signal (log2 normalized intensity) amounted to 7.18.

For TTCCTGGATTGTGAAACACAGGACTTGATC, the binding signal (log2 normalized intensity) came to 1.44.

Regarding CATTCCAGGGTGAAATTCAACAGAACTGTT, the binding signal (log2 normalized intensity) was -1.41.

For the sequence TCTCCTGGAAAGGTTCCACTCTGACTAACT, the binding signal (log2 normalized intensity) was -1.24.

On to ACGCACTCGCCTCTCCTGTTCCGGTTGGGT, for which the binding signal (log2 normalized intensity) stood at 0.512.

Turning to ACAAGGGCATGTAAAGGAGATTATCTAGAC, the binding signal (log2 normalized intensity) was -1.47.

Take GAGACTGCTCGGCATCCCTGCCGTGGCTGG: the binding signal (log2 normalized intensity) was -1.33.

With GACCAAAGATCACAGTGAAGGTGAAGAGTG, the binding signal (log2 normalized intensity) turned out to be 0.967.

Regarding GTGTTTGCCCAGCTTGAATCACTCACTGAC, the binding signal (log2 normalized intensity) is -1.28.

Turning to CCACGGAATCCCAGTTCTGATACACTCGCC, the binding signal (log2 normalized intensity) was -1.39.

For the sequence TCCACTCCGGGCGATCCGGGCTCCGGGCGC, the binding signal (log2 normalized intensity) is -1.28.

Consider CAAAGTAAACAAAGATACTCTCATCACTTA, for which the binding signal (log2 normalized intensity) is -1.31.

As to CTGCAATGACAATAAATTATACCAACTATT, the binding signal (log2 normalized intensity) is -1.26.

Regarding ATCCTTACACAGCAGCTTTAGTCAGAGATT, the binding signal (log2 normalized intensity) was -1.29.

Consider AATTGACCTTTGATCACTCATGGGCAAGAT, for which the binding signal (log2 normalized intensity) was determined as 6.41.

For GAAAGCTGGCTTGGAAAAAGCAGGCAACCA, the binding signal (log2 normalized intensity) is -1.3.

As for GCCAGAACTCAGGGTCTGGTTCCAAAGTCT, the binding signal (log2 normalized intensity) came out at 4.43.

Regarding CAAAAGCTGAGTCCCTGCTTGATAAGACTG, the binding signal (log2 normalized intensity) was -0.775.

On to AGTTAGGTTCTGGCACCTGAAGCTGCCCTT, for which the binding signal (log2 normalized intensity) turned out to be 2.29.

For the sequence TGAACCCTTGGGGCTTTTGCAATTTAAACT, the binding signal (log2 normalized intensity) came out at 0.505.

As for ATCACACAACTTTCATTGAACTGCTGGGGG, the binding signal (log2 normalized intensity) was -0.529.

For the sequence TCGCACCTAAGGGCACCCTTCCTGCTTCCA, the binding signal (log2 normalized intensity) was -1.22.

Turning to GGCGGAGAGCTCCGGGGTCACGCGCGTGTG, the binding signal (log2 normalized intensity) was 1.79.

As for TACCCTGGGAATGGAGAGAGAGAGAATAGC, the binding signal (log2 normalized intensity) was -1.35.

With CAAACACAGATCAGATATGAGATTCCCAGA, the binding signal (log2 normalized intensity) is -1.34.

Take CAGCGCCTCCCGGTCACTACAACAACGGCG: the binding signal (log2 normalized intensity) is -1.26.

Take TATGTTTCAGCCAAGAGCGGAAAGAAAGGC: the binding signal (log2 normalized intensity) was -1.19.

Regarding CTCTTTTAGTAACTGACTTTAACTTCAAAG, the binding signal (log2 normalized intensity) is -1.21.

For the sequence CCTTGGCTGTGTGACTCACCTTTGCTCTGA, the binding signal (log2 normalized intensity) stood at 4.48.

Consider GGGCTCAAGCGATCCTCCCACTTCAGCCTC, for which the binding signal (log2 normalized intensity) is -1.36.

For GGGCACTGATAACCTGCATTTGAAAGAGGT, the binding signal (log2 normalized intensity) was -1.29.

As for TCTCCAAACCCATATTCCTATCACCATATC, the binding signal (log2 normalized intensity) amounted to 0.0991.

In the case of TCATACCTCTTACCAGATAGATGCTGCTCT, the binding signal (log2 normalized intensity) was -1.46.

As to TCCTACTTTATCTAAGTAAACTAGTGATGT, the binding signal (log2 normalized intensity) came to 1.17.

AGGCAGGACATCAAAGAACAAGTATCCTGG: the binding signal (log2 normalized intensity) was -1.19.

For the sequence TCTGTACAGCTCTTGTGCTCTGGACATACC, the binding signal (log2 normalized intensity) was determined as 0.639.

Consider TCTGTTTCTCTGTCTCTCTGCACACACAGA, for which the binding signal (log2 normalized intensity) was -1.25.

As to TAATATTTTTGACTTACCATTTGCTGATAA, the binding signal (log2 normalized intensity) is -0.712.

As to CTTCCCTCCACTATTGTCCTATGACCCTGC, the binding signal (log2 normalized intensity) was found to be 4.86.

Consider GCAGCTCAAGGGTGTTCCTGAGTAAATCTC, for which the binding signal (log2 normalized intensity) was -1.27.

As to TTTGCTGAAGACAGGCCAGGGTGATCAAAC, the binding signal (log2 normalized intensity) came to 0.843.

Take AGGAATGTACATAATCTGGACCCAAACGAA: the binding signal (log2 normalized intensity) was 2.95.

As for TTGCCCCCCTGGGCTCAAGCGATCCTCCCA, the binding signal (log2 normalized intensity) was 4.82.

For CAGCATAGTCCTGCCACATTTTTATCCTTT, the binding signal (log2 normalized intensity) came to 1.72.

For ACCTTTGACCTGGTACTATGACCTTTCACC, the binding signal (log2 normalized intensity) amounted to 7.83.

For the sequence GCTTTGATGTGTGTATCAATGGCCCCAGTG, the binding signal (log2 normalized intensity) came out at 2.12.

For ACATTCGTTAACATCAGCTGAGCAGAGAGG, the binding signal (log2 normalized intensity) is -1.38.

For AGGAACTTACGAAGATAAATCAGAAGAAAA, the binding signal (log2 normalized intensity) is -1.27.

Turning to CCATAAATACACAATCTGAAGTCCCCTGTG, the binding signal (log2 normalized intensity) came to 2.2.

As to AACAGTCTGCACATTTATTGGACTAGGCAC, the binding signal (log2 normalized intensity) stood at 1.45.

For ATATAAGCTATTACTTGATTTAATACGATA, the binding signal (log2 normalized intensity) was -0.0423.

For TTTACGAAGTGTTTGTCAAGCTCAATGCAA, the binding signal (log2 normalized intensity) was -1.23.

Turning to ATAACCACCATTAGACTCTGCCCTCCTTAA, the binding signal (log2 normalized intensity) stood at 3.3.

With GCTCCCTCCCCTCCTCCCTTGCTCACCCCA, the binding signal (log2 normalized intensity) came to 5.89.

Consider CCAGAGTTCAGGTAGAGGGATTCCCTGGGA, for which the binding signal (log2 normalized intensity) is -0.833.

For the sequence GTTTTGAGATAGGGTCTTGCTTTGTCACCC, the binding signal (log2 normalized intensity) was found to be 2.

With GGTCAAGGACTGTTCAGTCCCAGTATGTGC, the binding signal (log2 normalized intensity) is -0.367.

Turning to CCCCAAAAACTTGGACTCTATAGCCTATGC, the binding signal (log2 normalized intensity) amounted to 2.66.

On to TAAGTACCCACTATAGATTGTGAGATAAGT, for which the binding signal (log2 normalized intensity) is -0.806.

In the case of CTGAAGACAGTCTCCAAGGTTATTATATTG, the binding signal (log2 normalized intensity) was found to be 1.49.

Take AGGTCGCCGGGAAAACCCGGAGCGGAGCAT: the binding signal (log2 normalized intensity) is -1.2.

For the sequence AGGCCCATCTTCTTATCTGAGGTTTGACTT, the binding signal (log2 normalized intensity) worked out at 0.989.

Turning to GCAGACCCTATTGGGCTAGCCGCTCCTCCC, the binding signal (log2 normalized intensity) was -1.24.

As to CTGGCCCAGCCTGGCCTCTAGAGTGGTTGC, the binding signal (log2 normalized intensity) is -0.874.

Turning to AATGATGATGACTTTTGACCCCAGGGGAAA, the binding signal (log2 normalized intensity) was determined as 6.38.
